# This is one part of the list.
# B1: Sebin2 (Coprinopsis cinerea), A8PE78 (protein)
# chain: MTTPFYAYCHNVQDDNTWRLGLVFANRSTADEWWRAISEATSSIPITKSITRVTPQYYTHDIRVWNMYNFFVDGNIKSISDKFRGRLFITLEYDRSGRGVSVFPPLHIVDHVSGNWYYIRSKTAPHLFWFYDETRNAIYASKEKRTRFKVSIRNPSPQTPKDAIMINSDDVVIHIKESLYVGVDSYLGHIIPTRAYRTFKFGELEGGAIAGIEVAENAEERCSSTFDGASLYFVGPDSSSPGEPWELV
# Assays:
# Assay in all cases: glycan array binding signal (z-score within array); higher = stronger binding
# Conditions in all cases: glycan notation: IUPAC condensed, linker removed
# [1] = target: GlcNAc(b1-2)[GlcNAc(b1-4)]Man(a1-3)[GlcNAc(b1-4)][GlcNAc(b1-2)Man(a1-6)]Man(b1-4)GlcNAc(b1-4)GlcNAc
# Method in brief: (§1)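 Glycan array data were curated from 3228 arrays in the Consortium for Functional Glycomics database and kept only where the protein sequence was available. Glycan names were converted to IUPAC-condensed notation, and columns mapping to the same glycan were averaged. The binding signal is a within-array Z-score, averaged across arrays of the same protein sequence at different concentrations or buffers and across linkers. Negative Z-scores can be read as non-binding.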
# [2] = target: GlcNAc(b1-2)[GlcNAc(b1-4)]Man(a1-3)[GlcNAc(b1-4)][GlcNAc(b1-2)[GlcNAc(b1-6)]Man(a1-6)]Man(b1-4)GlcNAc(b1-4)GlcNAc
# Method in brief: as §1
# [3] = target: GlcNAc(b1-2)[GlcNAc(b1-4)]Man(a1-3)[GlcNAc(b1-4)][GlcNAc(b1-2)[GlcNAc(b1-6)]Man(a1-6)]Man(b1-4)GlcNAc(b1-4)[Fuc(a1-6)]GlcNAc
# Method in brief: as §1
# [4] = target: GlcNAc(b1-2)[GlcNAc(b1-6)]Man(a1-6)[GlcNAc(b1-2)Man(a1-3)]Man(b1-4)GlcNAc(b1-4)GlcNAc
# Method in brief: as §1
# [5] = target: GlcNAc(b1-2)[GlcNAc(b1-6)]Man(a1-6)[GlcNAc(b1-2)Man(a1-3)]Man(b1-4)GlcNAc(b1-4)[Fuc(a1-6)]GlcNAc
# Method in brief: as §1
# [6] = target: GlcNAc(b1-2)[GlcNAc(b1-6)]Man(a1-6)[GlcNAc(b1-4)][GlcNAc(b1-2)Man(a1-3)]Man(b1-4)GlcNAc(b1-4)GlcNAc
# Method in brief: as §1
# GlcNAc(b1-3)Fuc = target: GlcNAc(b1-3)Fuc
# Method in brief: as §1
# GlcNAc(b1-3)Gal = target: GlcNAc(b1-3)Gal
# Method in brief: as §1
# [7] = target: GlcNAc(b1-3)Gal(b1-3)GalNAc
# Method in brief: as §1
# GlcNAc(b1-3)Gal(b1-4)Glc = target: GlcNAc(b1-3)Gal(b1-4)Glc
# Method in brief: as §1
# [8] = target: GlcNAc(b1-3)Gal(b1-4)GlcNAc
# Method in brief: as §1
# [9] = target: GlcNAc(b1-3)Gal(b1-4)GlcNAc(b1-2)Man(a1-3)[GlcNAc(b1-3)Gal(b1-4)GlcNAc(b1-2)Man(a1-6)]Man(b1-4)GlcNAc(b1-4)GlcNAc
# Method in brief: as §1
# [10] = target: GlcNAc(b1-3)Gal(b1-4)GlcNAc(b1-2)Man(a1-3)[GlcNAc(b1-3)Gal(b1-4)GlcNAc(b1-2)Man(a1-6)]Man(b1-4)GlcNAc(b1-4)[Fuc(a1-6)]GlcNAc
# Method in brief: as §1
# [11] = target: GlcNAc(b1-3)Gal(b1-4)GlcNAc(b1-2)[GlcNAc(b1-3)Gal(b1-4)GlcNAc(b1-6)]Man(a1-6)[GlcNAc(b1-3)Gal(b1-4)GlcNAc(b1-2)Man(a1-3)]Man(b1-4)GlcNAc(b1-4)GlcNAc
# Method in brief: as §1
# [12] = target: GlcNAc(b1-3)Gal(b1-4)GlcNAc(b1-3)Gal(b1-4)GlcNAc
# Method in brief: as §1
# [13] = target: GlcNAc(b1-3)Gal(b1-4)GlcNAc(b1-3)Gal(b1-4)GlcNAc(b1-2)Man(a1-3)[GlcNAc(b1-3)Gal(b1-4)GlcNAc(b1-3)Gal(b1-4)GlcNAc(b1-2)Man(a1-6)]Man(b1-4)GlcNAc(b1-4)GlcNAc
# Method in brief: as §1
# [14] = target: GlcNAc(b1-3)Gal(b1-4)GlcNAc(b1-3)Gal(b1-4)GlcNAc(b1-2)Man(a1-3)[GlcNAc(b1-3)Gal(b1-4)GlcNAc(b1-3)Gal(b1-4)GlcNAc(b1-2)Man(a1-6)]Man(b1-4)GlcNAc(b1-4)[Fuc(a1-6)]GlcNAc
# Method in brief: as §1
# [15] = target: GlcNAc(b1-3)Gal(b1-4)GlcNAc(b1-3)Gal(b1-4)GlcNAc(b1-2)[GlcNAc(b1-3)Gal(b1-4)GlcNAc(b1-3)Gal(b1-4)GlcNAc(b1-6)]Man(a1-6)[GlcNAc(b1-3)Gal(b1-4)GlcNAc(b1-3)Gal(b1-4)GlcNAc(b1-2)Man(a1-3)]Man(b1-4)GlcNAc(b1-4)[Fuc(a1-6)]GlcNAc
# Method in brief: as §1
# [16] = target: GlcNAc(b1-3)Gal(b1-4)GlcNAc(b1-3)Gal(b1-4)GlcNAc(b1-3)Gal(b1-4)GlcNAc(b1-2)Man(a1-3)[GlcNAc(b1-3)Gal(b1-4)GlcNAc(b1-3)Gal(b1-4)GlcNAc(b1-3)Gal(b1-4)GlcNAc(b1-2)Man(a1-6)]Man(b1-4)GlcNAc(b1-4)GlcNAc
# Method in brief: as §1
# [17] = target: GlcNAc(b1-3)Gal(b1-4)GlcNAc(b1-3)Gal(b1-4)GlcNAc(b1-3)Gal(b1-4)GlcNAc(b1-2)Man(a1-3)[GlcNAc(b1-3)Gal(b1-4)GlcNAc(b1-3)Gal(b1-4)GlcNAc(b1-3)Gal(b1-4)GlcNAc(b1-2)Man(a1-6)]Man(b1-4)GlcNAc(b1-4)[Fuc(a1-6)]GlcNAc
# Method in brief: as §1
# [18] = target: GlcNAc(b1-3)Gal(b1-4)GlcNAc(b1-3)Gal(b1-4)GlcNAc(b1-3)Gal(b1-4)GlcNAc(b1-2)[GlcNAc(b1-3)Gal(b1-4)GlcNAc(b1-3)Gal(b1-4)GlcNAc(b1-3)Gal(b1-4)GlcNAc(b1-6)]Man(a1-6)[GlcNAc(b1-3)Gal(b1-4)GlcNAc(b1-3)Gal(b1-4)GlcNAc(b1-3)Gal(b1-4)GlcNAc(b1-2)Man(a1-3)]Man(b1-4)GlcNAc(b1-4)[Fuc(a1-6)]GlcNAc
# Method in brief: as §1
# [19] = target: GlcNAc(b1-3)Gal(b1-4)GlcNAc(b1-3)Gal(b1-4)GlcNAc(b1-3)Gal(b1-4)GlcNAc(b1-3)Gal(b1-4)GlcNAc(b1-2)Man(a1-3)[GlcNAc(b1-3)Gal(b1-4)GlcNAc(b1-3)Gal(b1-4)GlcNAc(b1-3)Gal(b1-4)GlcNAc(b1-3)Gal(b1-4)GlcNAc(b1-2)Man(a1-6)]Man(b1-4)GlcNAc(b1-4)GlcNAc
# Method in brief: as §1
# [20] = target: GlcNAc(b1-3)Gal(b1-4)GlcNAc(b1-3)Gal(b1-4)GlcNAc(b1-3)Gal(b1-4)GlcNAc(b1-3)Gal(b1-4)GlcNAc(b1-2)Man(a1-3)[GlcNAc(b1-3)Gal(b1-4)GlcNAc(b1-3)Gal(b1-4)GlcNAc(b1-3)Gal(b1-4)GlcNAc(b1-3)Gal(b1-4)GlcNAc(b1-2)Man(a1-6)]Man(b1-4)GlcNAc(b1-4)[Fuc(a1-6)]GlcNAc
# Method in brief: as §1
# [21] = target: GlcNAc(b1-3)Gal(b1-4)GlcNAc(b1-3)Gal(b1-4)GlcNAc(b1-3)Gal(b1-4)GlcNAc(b1-3)Gal(b1-4)GlcNAc(b1-2)[GlcNAc(b1-3)Gal(b1-4)GlcNAc(b1-3)Gal(b1-4)GlcNAc(b1-3)Gal(b1-4)GlcNAc(b1-3)Gal(b1-4)GlcNAc(b1-6)]Man(a1-6)[GlcNAc(b1-3)Gal(b1-4)GlcNAc(b1-3)Gal(b1-4)GlcNAc(b1-3)Gal(b1-4)GlcNAc(b1-3)Gal(b1-4)GlcNAc(b1-2)Man(a1-3)]Man(b1-4)GlcNAc(b1-4)[Fuc(a1-6)]GlcNAc
# Method in brief: as §1
# [22] = target: GlcNAc(b1-3)Gal(b1-4)GlcNAc(b1-3)Gal(b1-4)GlcNAc(b1-3)GalNAc
# Method in brief: as §1
# [23] = target: GlcNAc(b1-3)Gal(b1-4)GlcNAc(b1-3)GalNAc
# Method in brief: as §1
# [24] = target: GlcNAc(b1-3)Gal(b1-4)GlcNAc(b1-3)[GlcNAc(b1-3)Gal(b1-4)GlcNAc(b1-3)]GalNAc
# Method in brief: as §1
# [25] = target: GlcNAc(b1-3)Gal(b1-4)GlcNAc(b1-6)[Gal(b1-3)]GalNAc
# Method in brief: as §1
# [26] = target: GlcNAc(b1-3)Gal(b1-4)GlcNAc(b1-6)[GlcNAc(b1-3)Gal(b1-3)]GalNAc
# Method in brief: as §1
# [27] = target: GlcNAc(b1-3)Gal(b1-4)GlcNAc(b1-6)[GlcNAc(b1-3)]Gal(b1-4)GlcNAc
# Method in brief: as §1
# GlcNAc(b1-3)GalNAc = target: GlcNAc(b1-3)GalNAc
# Method in brief: as §1
# GlcNAc(b1-3)Man = target: GlcNAc(b1-3)Man
# Method in brief: as §1
# [28] = target: GlcNAc(b1-3)[GlcNAc(b1-4)][GlcNAc(b1-6)]GlcNAc
# Method in brief: as §1
# [29] = target: GlcNAc(b1-3)[GlcNAc(b1-6)]Gal(b1-4)GlcNAc
# Method in brief: as §1
# [30] = target: GlcNAc(b1-3)[GlcNAc(b1-6)]GalNAc
# Method in brief: as §1
# [31] = target: GlcNAc(b1-4)Gal(b1-4)GlcNAc
# Method in brief: as §1
# GlcNAc(b1-4)GlcNAc = target: GlcNAc(b1-4)GlcNAc
# Method in brief: as §1
# [32] = target: GlcNAc(b1-4)GlcNAc(b1-4)GlcNAc
# Method in brief: as §1
binder,measurement,setting,value
B1,glycan array binding signal (z-score),[1],2.76
same,glycan array binding signal (z-score),[2],-0.16
same,glycan array binding signal (z-score),[3],-0.211
same,glycan array binding signal (z-score),[4],0.031
same,glycan array binding signal (z-score),[5],-0.115
same,glycan array binding signal (z-score),[6],-0.308
same,glycan array binding signal (z-score),GlcNAc(b1-3)Fuc,-0.007
same,glycan array binding signal (z-score),GlcNAc(b1-3)Gal,-0.7
same,glycan array binding signal (z-score),[7],-0.073
same,glycan array binding signal (z-score),GlcNAc(b1-3)Gal(b1-4)Glc,-0.04
same,glycan array binding signal (z-score),[8],-0.287
same,glycan array binding signal (z-score),[9],-0.256
same,glycan array binding signal (z-score),[10],0.001
same,glycan array binding signal (z-score),[11],-0.571
same,glycan array binding signal (z-score),[12],-0.385
same,glycan array binding signal (z-score),[13],-0.255
same,glycan array binding signal (z-score),[14],-0.041
same,glycan array binding signal (z-score),[15],0.486
same,glycan array binding signal (z-score),[16],0.009
same,glycan array binding signal (z-score),[17],-0.017
same,glycan array binding signal (z-score),[18],0.275
same,glycan array binding signal (z-score),[19],-0.343
same,glycan array binding signal (z-score),[20],-0.166
same,glycan array binding signal (z-score),[21],0.448
same,glycan array binding signal (z-score),[22],-0.368
same,glycan array binding signal (z-score),[23],-0.027
same,glycan array binding signal (z-score),[24],-0.383
same,glycan array binding signal (z-score),[25],-0.253
same,glycan array binding signal (z-score),[26],-0.174
same,glycan array binding signal (z-score),[27],-0.21
same,glycan array binding signal (z-score),GlcNAc(b1-3)GalNAc,-0.413
same,glycan array binding signal (z-score),GlcNAc(b1-3)Man,-0.177
same,glycan array binding signal (z-score),[28],-0.339
same,glycan array binding signal (z-score),[29],0.177
same,glycan array binding signal (z-score),[30],0.087
same,glycan array binding signal (z-score),[31],0.023
same,glycan array binding signal (z-score),GlcNAc(b1-4)GlcNAc,-0.114
same,glycan array binding signal (z-score),[32],-0.621

# — the supplement of paper PMC8728848
